Paper PMC7865252, “Dual and Opposite Costimulatory Targeting with a Novel Human Fusion Recombinant Protein Effectively Prevents Renal Warm Ischemia Reperfusion Injury and Allograft Rejection in Murine Models” (International Journal of Molecular Sciences, 2021)
Values joined by “and” are separate entries in the source; they are usually repeats but may differ in a detail not shown here. Equal values may be shown once.

Experiments:
recombinant murine CD80 = biological target: T1, recombinant murine CD80 (murine, UniProt Q00609 38-246); assay: SPR; Biacore T200, 25 °C; HYBRI immobilised on CM5 chip by amine coupling (two ligand densities); analytes in PBS-P, 15.6-2000 nM, 30 µL/min, 90 s injection, 240 s dissociation; steady-state analysis and kinetic fit with 1:1 Langmuir model; conditions: both partners purified
T1 construct: CD80, murine (recombinant, R&D systems); source: bought: R&D systems
T1 sequence (looked up): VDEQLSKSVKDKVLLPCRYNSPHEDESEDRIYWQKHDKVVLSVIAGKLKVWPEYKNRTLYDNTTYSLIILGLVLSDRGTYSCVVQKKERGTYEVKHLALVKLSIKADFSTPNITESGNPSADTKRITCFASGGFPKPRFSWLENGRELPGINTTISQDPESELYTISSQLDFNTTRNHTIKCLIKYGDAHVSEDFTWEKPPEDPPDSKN

recombinant murine PD-1 = biological target: T2, recombinant murine PD-1 (murine, UniProt Q02242 25-169); assay: as above; conditions: both partners purified
T2 construct: PD-1, murine (recombinant, R&D systems); source: bought: R&D systems
T2 sequence (looked up): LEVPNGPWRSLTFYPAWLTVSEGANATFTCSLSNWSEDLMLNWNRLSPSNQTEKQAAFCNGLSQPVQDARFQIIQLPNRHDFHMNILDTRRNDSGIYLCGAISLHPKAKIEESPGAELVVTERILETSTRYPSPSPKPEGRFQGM

Kd (recombinant murine CD80): 3.72 µM and 3.62 µM
koff (recombinant murine CD80): 0.568 s⁻¹
kon (recombinant murine CD80): 157000 M⁻¹ s⁻¹
Kd (recombinant murine PD-1): 52.9 µM and 49.1 µM
koff (recombinant murine PD-1): 3.19 s⁻¹
kon (recombinant murine PD-1): 63700 M⁻¹ s⁻¹
B1: HYBRI, human fusion recombinant protein with CTLA4 and PD-L2 domains (Fc fusion)
chain 1: [about 120 residues omitted here]
chain 2: LFTVTVPKELYIIEHGSNVTLECNFDTGSHVNLGAITASLQKVENDTSPHRERATLLEEQLPLGKASFHIPQVQVRDEGQYQCIIIYGVAWDYKYLTLKVKASYRKINTHILKVPETDEVELTCQATGYPLAEVSWPNVSVPANTSHSRTPEGLYQVTSVLRLKPPPGRNFSCVFWNTHVRELTLASIDLQSQMEPRTHPT
